# Data taken from PubChem BioAssay AID1479 (National Center for Advancing Translational Sciences (NCATS), 2009).
# Hit rate of the full screen: of about 280,000 compounds, about 820 (0.29%) were called active. Inconclusive results (about 1%) are left out. The call rests on the fitted dose curve; in most records, active means well fitted curve in either direction with a large enough effect; inconclusive means small, poorly fitted or top-dose-only effect; inactive means flat fitted curve, though single readings scatter. Only a part is listed here, and it is no random draw. Where a structure was tested more than once in an assay, its records may differ in their call.
# Assay: Total Fluorescence Counterscreen for Inhibitors of the Interaction of Thyroid Hormone Receptor and Steroid Receptor Coregulator 2
# Settings: TRb/SRC2 Texas Red total fluorescence interference; series mostly up to 106 µM; fluorescence change, negative = quenching: at the top concentration
# Text: NIH Molecular Libraries Probe Production Network [MLPCN]
# NIH Chemical Genomics Center [NCGC]
# Assay Provider: R. Kip Guy, St. Jude Children's Research Hospital
# Thyroid receptor (TR) regulates many homeostatic processes including basal metabolism, cardiovascular function, body weight, and lipid trafficking. TR modulators are potential therapeutics for obesity and hyperlipidemias but current thyroid analogs have undesirable side effects, particularly cardiac stimulation. To identify inhibitors that specifically prevent the interaction of TR with the steroid receptor […] 2 (SRC2), a fluorescence polarization assay was screened. This assay detects interaction of the ligand-binding domain of human TRb with a Texas Red labeled SRC2 peptide, corresponding to a 20 amino acid region of the nuclear receptor interaction domain (Arnold et al., 2006). Total fluorescence (555 nm excitation and 632 nm emission) was measured to identify potential fluorescent and light absorbing compounds. Such compounds may be artifacts that interfere with the fluorescence polarization assay.
# Arnold, L. A.; Estebanez-Perpina, E.; Togashi, M.; Shelat, A.; Ocasio, C. A.; McReynolds, A. C.; Nguyen, P.; Baxter, J. D.; Fletterick, R. J.; Webb, P.; Guy, R. K. A high-throughput screening method to identify small molecule inhibitors of thyroid hormone receptor coactivator binding. Sci STKE 2006, p 13.
# NCGC Assay Protocol Summary:
# For screening, 5 uL/well 0.6 uM TRb and 20 nM SRC2 Texas Red in protein buffer (20mM Tris hydrochloride, 100mM NaCl, 10% glycerol, 1mM EDTA, 0.01% NP-40, 1mM DTT, 1uM T3 and 5% DMSO) was dispensed into black solid 1536-well plates (Grenier) using a solenoid-based dispenser. Following transfer of 23 nL compound or DMSO vehicle by a pin tool, the plates were centrifuged 15 s at 1000 RPM and incubated 5 hr at ambient temperature. The plates were read by an Envision (Perkin Elmer) to detect fluorescence polarization of SRC2 Texas Red (555 nm excitation and 632 nm emission). Data were normalized to unbound (all components except TRb) and bound SRC2 Texas Red controls. Total fluorescence (TF) was calculated as follows: TF = S + 2P where S and P are fluorescence readings in the parallel and perpendicular channels, respectively.
# Keywords: NIH Roadmap, MLPCN, MLI, MLSMR, qHTS, NCGC, qHTS, thyroid hormone receptor, steroid receptor coactivator, fluorescence polarization
# On the % scale 0 is the no-effect control and ±100 the full control effect; potency means the concentration at half of the fitted maximal effect; tags describe the fitted curve by direction and shape or compound fluorescence and quenching.
SMILES,"fluorescence change, negative = quenching",Potency
O[C@@H]1CO[C@H]2C1OC[C@@H]2O (stereo not given in full),inactive: -2.25%,
O=C(NCc1ccccc1)c1nc(-c2ccc(Cl)cc2)n2c1CCCCC2,,active: 20 µM [quencher]
COc1cccc(NC(=O)C(=O)NCC(c2cccnc2)N2CCN(c3ccccc3)CC2)c1 (stereo not given),,active: 100 µM [quencher]
COc1cc(/C=C2/C(C)=C(C#N)c3nc(N)c(C#N)c(C)c32)ccc1OCC(=O)O,inactive: 26.8%,
O=[N+]([O-])c1cccc2cn[nH]c12,,inactive
COC(=O)C(c1ccccc1Cl)N1CCc2sccc2C1 (stereo not given),,inactive
CC(=O)O[C@H]1C(=O)[C@@]2(C)[C@H]([C@H](OC(=O)c3ccccc3)[C@]3(O)C[C@H](OC(=O)[C@H](O)C(NC(=O)c4ccccc4)c4ccccc4)C(C)=C1C3(C)C)[C@]1(OC(C)=O)CO[C@@H]1C[C@@H]2O (stereo not given in full),inactive: -0.582%,
Cc1ccc(CSc2nc3c(c(=O)[nH]2)C(c2cccc(F)c2F)CC(=O)N3)cc1 (stereo not given),,active: 8.91 µM [quencher]
N[C@H](C(=O)O)c1cc(O)cc(O)c1,,inactive
CCCCC1=CC2=CC(=O)C(C)(OC(=O)c3cnc4ccccc4n3)C(=O)C2=CO1 (stereo not given),inactive: -1.23%,
S=C([S-])NCCNC(=S)[S-].[Mn+2],,inactive
CC1=C(C#N)C(NC(=O)c2cccc(Cl)c2)(C(F)(F)F)C(=O)N1 (stereo not given),inactive: -0.917%,
CCOCCOC(=O)c1ccc(NC(=O)/C=C/c2ccc(OC)c(OC)c2)cc1,,active: 0.891 µM [quencher]
CSc1ccc(CCNC(=O)c2ccc(-n3c(C)cc4c3CCC(C)C4)cc2)cc1 (stereo not given),,active: 22.4 µM [quencher]
CC(=O)c1ccc(S(=O)(=O)NC(=O)NC2CCCCC2)cc1,,inactive
CCOc1ccc(CCNC(=O)CSc2cc(=O)n(C)c3ccc(Cl)cc23)cc1OCC,inactive: 0.757%,
O=C(Cn1ccnc1[N+](=O)[O-])NCCO,inactive: -1.1%,
CCN(CC)C(=O)C1=C(C)Nc2nc3ccccc3n2C1c1cccc(OC)c1 (stereo not given),inactive: -2.9%,
CCc1ccc(CN(C(=O)Nc2cccc(Cl)c2)c2ccccn2)cc1,,active: 355 µM [quencher]
CC(C)NCC(O)COc1ccc(COCCOC(C)C)cc1 (stereo not given),,inactive
Cc1ncc([N+](=O)[O-])n1CCO,,inactive
CC(C)NC[C@@H](O)COc1ccc(COCCOC(C)C)cc1,inactive: 1.54%,

SMILES,"fluorescence change, negative = quenching",Potency
Cc1cc(NC(=O)CSc2cc(Cl)ccc2Cl)n(-c2ccccc2)n1,,active: 31.6 µM [quencher]
Nc1nc(-c2c[nH]c3ccccc23)cs1,,active: 35.5 µM [fluorescent]
CC1(C)O[C@@H]1COc1c2ccoc2cc2oc(=O)ccc12,inactive: 0.0917%,
CC(=O)OC1C(=O)[C@@]2(C)C(O)CC3OC[C@]3(OC(C)=O)C2C(OC(=O)c2ccccc2)[C@]2(O)CC(OC(=O)C(O)C(NC(=O)c3ccccc3)c3ccccc3)C(C)=C1C2(C)C (stereo not given in full),inactive: -1.25%,
CCOc1cc(CNc2ccc(N(C)C)cc2)cc(Br)c1OCC(=O)NC(C)(C)C,,active: 44.7 µM [fluorescent]
CC1=C(\C=C/C(C)=C/C=C\C(C)=C\C(=O)O)C(C)(C)CCC1,,inactive
O=C1SC(Nc2ccc(Cl)cc2)C(=O)N1Cc1ccccc1 (stereo not given),,active: 0.0032 µM [quencher]
COC1C=CO[C@@]2(C)Oc3c(C)c(O)c4c(O)c(c5c(nc6cc(C)ccn65)c4c3C2=O)NC(=O)/C(C)=C\C=CC(C)C(O)[C@@H](C)C(O)C(C)[C@@H](OC(C)=O)C1C (stereo not given in full),inactive: -5.12%,
NS(=O)(=O)c1cc2c(cc1Cl)NCNS2(=O)=O,,inactive
Cc1ccc(C)c(CN2C(=O)c3ccccc3S(=O)(=O)c3ccc(C(=O)N4CCOCC4)cc32)c1,,active: 2.82 µM [quencher]
O=C(CSc1ccc2ccccc2n1)Nc1nsc(-c2ccc(Cl)cc2)n1,inactive: 2.16%,
NCC(O)c1ccc(O)c(O)c1 (stereo not given),inactive: 2.37%,
CCCCCCCCCCCCC/C=C\[C@@H](O)[C@@H](N)CO,inactive: -0.0229%,
Cc1cc(C)n2c(Nc3ccc(Cl)cc3)c(-c3ccsc3)nc2n1,,active: 1120 µM [quencher]
O=C(NC(NC(=S)Nc1ccc(F)c([N+](=O)[O-])c1)C(Cl)(Cl)Cl)C(c1ccccc1)c1ccccc1 (stereo not given),inactive: 0.548%,
CCN(CC)CCNC(=O)c1ccc(NC(C)=O)cc1,,inactive
Cc1ccc(-n2c3c(c(=O)[nH]c2=O)C(NS(=O)(=O)c2ccc(Cl)cc2)(C(F)(F)F)C(=O)N3)cc1 (stereo not given),inactive: -1.82%,
O=C(O)[C@@H]1C[C@@H](C(=O)O)N1,,inactive
Cc1ccc(CN(Cc2ccco2)C(=O)COc2ccc(C(C)C)cc2)cc1,,active: 0.0006 µM [quencher]
CCOC(=O)Cc1cc(=O)n2[nH]c(C)c(-c3ccccc3)c2n1,,active: 44.7 µM [fluorescent]
Cn1c(CN2CCCCC2)nc2cc(NC(=O)c3ccc(Cl)cc3)ccc21,inactive: -4.12%,
Cc1c(C)c2c(c(C)c1O)CC[C@@](C)(CCC[C@@H](C)CCC[C@@H](C)CCCC(C)C)O2,inactive: -2.09%,

SMILES,"fluorescence change, negative = quenching",Potency
Cc1ccc2[nH]c(=O)c3cc(C(=O)N(CCCOC(C)C)Cc4ccco4)sc3c2c1,inactive: -0.12%,
CNC(=O)[C@H]1O[C@@H](n2cnc3c(N)ncnc32)[C@H](O)[C@@H]1O,inactive: -2.4%,
Clc1ccc2c(c1)C(N1CCNCC1)=Nc1ccccc1O2,,inactive
O=C(c1ccc(C(F)(F)F)cc1)N1CCC(=O)N(C(COCc2ccc(Cl)cc2)Cc2ccccc2)CC1 (stereo not given),inactive: -0.96%,
CCc1ccc(NC(=O)COC(=O)CCCC2=NS(=O)(=O)c3ccccc3N2)cc1,inactive: -0.291%,
CC(=O)c1ccc(N2CCN(C(=O)Nc3ccc(C(C)C)cc3)CC2)cc1,inactive: -8.48%,
COc1ccccc1N1CCN(C(=O)CNS(=O)(=O)c2ccc(Br)s2)CC1,,active: 79.4 µM [quencher]
O=C(O)[C@H]1CN(CCCP(=O)(O)O)CCN1,,inactive
COc1cccc(NC(=O)OCCN2CCN(Cc3ccccc3)CCC2=O)c1,inactive: -0.975%,
O=C(/C=C/c1ccc(O)c(O)c1)OC(Cc1ccc(O)c(O)c1)C(=O)O (stereo not given),,inactive
O=c1n(Cc2ccc([N+](=O)[O-])cc2)c2ccccc2c2nc(-c3ccccc3)nn12,,active: 100 µM [quencher]
COc1ccc(-c2cc(=O)c3ccccc3o2)cc1,inactive: 1.23%,
Cc1cc(-c2ccc(N=Nc3ccc4c(S(=O)(=O)O)cc(S(=O)(=O)O)c(N)c4c3O)c(C)c2)ccc1N=Nc1ccc2c(S(=O)(=O)O)cc(S(=O)(=O)O)c(N)c2c1O,,active: 17.8 µM [fluorescent]
O=C1C[C@@H]2CCN3C(=O)CCC[C@@H]([C@H]23)[C@@H]1Cc1ccccc1,inactive: 1.84%,
O=C(O)c1cc(O)c2c(c1)[C@H]([C@H]1c3cc(C(=O)O)cc(O)c3C(=O)c3c(O[C@@H]4OC(CO)C(O)C(O)C4O)cccc31)c1cccc(O[C@@H]3OC(CO)C(O)C(O)C3O)c1C2=O (stereo not given in full),,active: 22.4 µM [quencher]
CC(NC(=O)/C(=C\c1cccc([N+](=O)[O-])c1)NC(=O)c1ccco1)C(=O)O (stereo not given),inactive: -3.76%,
Cc1ccc(NC(=O)CSc2nc(C)c(Cc3ccccc3)c(=O)[nH]2)cc1C,inactive: -0.944%,
O=C1c2c(O)cccc2Cc2cccc(O)c21,inactive: -6.83%,
Cc1cccc(Oc2nc3c(c(=O)n(C)c(=O)n3C)n2C)c1,inactive: -1.12%,
COc1ccc(C(=O)COC(=O)CCN2C(=O)C3C4CC(C(Br)C4Br)C3C2=O)cc1 (stereo not given),inactive: 0.441%,
Cc1cccc(NC(=O)CCn2cnnn2)c1,inactive: -0.662%,
N[C@@H](CS(=O)O)C(=O)O,,inactive

SMILES,"fluorescence change, negative = quenching",Potency
Cc1cc(C)cc(NC(=O)CSc2nc3c(c(=O)[nH]2)CN(Cc2ccc(F)cc2)CC3)c1,inactive: -0.992%,
N#C/C(=C\c1ccc(N2CCOCC2)o1)C(=O)N1CCOCC1,inactive: 0.512%,
Cc1cc(O)c(C=O)c2c1C(=O)Oc1c(CO)c(O)c3c(c1O2)C(O)OC3=O (stereo not given),,active: 11.2 µM [quencher]
OCCN(CCO)c1nc(N2CCCCC2)c2nc(N(CCO)CCO)nc(N3CCCCC3)c2n1,,inactive
COc1ccccc1CNc1nc2nc(C)c(Cl)c(C)n2n1,,active: 0.0224 µM [quencher]
O=C(O)[C@@H]1C[C@H](C(=O)O)N1,inactive: -3.3%,
NS(=O)(=O)c1cc2c(cc1Cl)NC(C1CC3C=CC1C3)NS2(=O)=O (stereo not given),inactive: -0.923%,
O=c1oc2c(O)c(O)cc3c(=O)oc4c(O)c(O)cc1c4c23,inactive: -12.5%,
O=C(NCC(c1cccnc1)N1CCc2ccccc2C1)C(=O)Nc1ccc(F)cc1F (stereo not given),,active: 2.82 µM [quencher]
COc1cccc2c1C(=O)c1c(O)c3c(c(O)c1C2=O)C[C@@](O)(C(C)=O)C[C@@H]3O[C@H]1C[C@H](N)[C@H](O)[C@H](C)O1,inactive: -3.62%,
COC(=O)C1=C(C)N(Cc2ccccc2)[C@]23O[C@](C(=O)OC)(C(=O)N2C1c1ccccc1)C1CCCC(=O)C13 (stereo not given in full),inactive: -4.45% [at 11.2 µM],
OCC1NCC(O)C(O)C1O (stereo not given),inactive: 2.45%,
O=C(NCCc1ccccc1)c1nnc(Cc2cccc(F)c2)o1,,active: 0.0056 µM [quencher]
CC(=O)O[C@H]1C(=O)[C@@]2(C)[C@H]([C@H](OC(=O)c3ccccc3)[C@]3(O)C[C@H](OC(=O)[C@H](O)[C@@H](NC(=O)c4ccccc4)c4ccccc4)C(C)=C1C3(C)C)[C@]1(OC(C)=O)CO[C@@H]1C[C@@H]2O,,inactive
C[C@@]12C=Cc3occc3[C@H]1CC[C@@]13C[C@@H](CC[C@H]12)[C@@](O)(CO)C3,inactive: -11.1%,
O=C(COC(=O)c1ccccc1NS(=O)(=O)c1cccs1)NC1CCCCC1,,active: 112 µM [quencher]
COc1cc(-c2nc3sccn3c2Nc2c(C)cccc2C)ccc1O,,active: 0.004 µM [quencher]
Cc1cc2c(cc1NS(=O)(=O)c1ccc(Br)cc1)n(C)c(=O)c(=O)n2C,,active: 2240 µM [quencher]
CCCc1cc(=O)[nH]c(SCC(=O)N2CCN(c3ccccc3)CC2)n1,inactive: 0.0118%,
